± gives the standard deviation of the averaged measurements. Some of the results follow.

For the test, the system named is PfAP2-G AP2 domain (GST-tagged). Briefly: gcPBM binding intensity (ln(normalized median fluorescence intensity)); higher = stronger DNA binding. The method, boiled down:
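After 1 h on an Agilent 4 × 180k array of primer-extended double-stranded 36-bp intergenic genomic probes and negative controls, bound GST-tagged P. falciparum DNA-binding domains were detected with Alexa488 anti-GST antibody and scanned at 488 nm. The domains had been expressed in E. coli, and binding took place in 1× PBS with 1% milk, 0.2 mg/ml BSA, 0.5% salmon testes DNA and 0.03% Triton X-100. Binding intensity is the highest Masliner-normalised natural-log median intensity across replicate spots of either probe orientation.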
Turning to “ATATAATATATATATAAACACACAAAAAAAATTATA [CACACA_site8434]”, the “gcPBM binding intensity (ln)” value amounted to 10.125 ± 0.007.

With “AATAAAATCATCTATACACACAAAAAAAATAAGAAA [CACACA_site2101]”, the “gcPBM binding intensity (ln)” value amounted to 9.965 ± 0.049.

Regarding “TTAAGAAACAAAGAAAGTACACAACATAATATAGAA [XGTACX_site477]”, the “gcPBM binding intensity (ln)” value was 11.4 ± 0.69.

With “AATAACCACGGACACACACACATATATATATATATA [CACACA_site5873]”, the “gcPBM binding intensity (ln)” value came to 11.2 ± 0.78.

Turning to ATTATAATACTTTGTATGCACTAATCAATTATTAAA, the “gcPBM binding intensity (ln)” value worked out at 10.1 ± 0.28.

Consider “ACATAAAATTGGAGCAAACACACAAGGTTGAAATTA [CACACA_site505]”, for which the “gcPBM binding intensity (ln)” value stood at 9.91 ± 0.15.

On to “TTTGTTATGGTTTTCTCACACATATATATATATATA [CACACA_site4617]”, for which the “gcPBM binding intensity (ln)” value came out at 10.3 ± 0.39.

Consider “CCGATATAATGGAAAACACACAAAAGATATTTATAT [CACACA_site7293]”, for which the “gcPBM binding intensity (ln)” value came to 9.88.

With “TACAACCTTATAATTAGTACTTAGTTATGCTGTAAA [XGTACX_site6052]”, the “gcPBM binding intensity (ln)” value worked out at 10.8 ± 0.46.

As to “TTTAATTTTTTTTATAGTACATAAAAAATAAAAAAA [XGTACX_site5631]”, the “gcPBM binding intensity (ln)” value is 11.2 ± 0.83.

Turning to “TTTATTTGTGCATATACACACTTAAATATGTTTATT [CACACA_site7772]”, the “gcPBM binding intensity (ln)” value worked out at 10.1 ± 0.13.

For the sequence “CTGTAAAAAATATAAACACACATAGAAATATATAAA [CACACA_site340]”, the “gcPBM binding intensity (ln)” value was determined as 9.84 ± 0.099.

As to “CCTCATAAGTTCTTATGTACGTATTGTTCACCTTTA [XGTACX_site6640]”, the “gcPBM binding intensity (ln)” value turned out to be 11.6 ± 0.84.

In the case of “ATAATAAAAAAAAATGCACACATATATATATATATA [CACACA_site8766]”, the “gcPBM binding intensity (ln)” value amounted to 10.1 ± 0.64.

On to “AATTTTAAGAGCTATACATGCACTTCATAAAAAGTG [TGCATGCA_site180]”, for which the “gcPBM binding intensity (ln)” value was found to be 10.5 ± 0.42.

In the case of “TTAATATTTAGACATGCATGCTAATTACTATATATA [TGCATGCA_site27]”, the “gcPBM binding intensity (ln)” value was 9.725 ± 0.007.

Regarding “AATATATATATATATACACACACACCGATATATATA [CACACA_site8158]”, the “gcPBM binding intensity (ln)” value turned out to be 9.9 ± 0.028.

Regarding “TAACAATTAATAAAAGGTACACTTGAATATGCACCA [XGTACX_site2717]”, the “gcPBM binding intensity (ln)” value was found to be 11.2 ± 0.73.

In the case of “TTATAATATATATACAGTACATATATAAAATAATAT [XGTACX_site5917]”, the “gcPBM binding intensity (ln)” value stood at 10.8 ± 0.5.

Regarding “TAATATAAAGAAAAGGAACACACAAATATATATATA [CACACA_site8049]”, the “gcPBM binding intensity (ln)” value is 9.9 ± 0.26.

Take TTTTCTTGGTTCAGTGTGCACTTATATATATATATA: the “gcPBM binding intensity (ln)” value was 10.6 ± 0.39.

As to “TTATTTTATAATAAAAGTACACAAAAAAAAAAAAAA [XGTACX_site7668]”, the “gcPBM binding intensity (ln)” value turned out to be 11.4 ± 1.1.

Consider “TTATTTCTCTTTTCAGTGCATTTTATAACAAAAAAA [GTGCAC_site9930]”, for which the “gcPBM binding intensity (ln)” value was determined as 10.3 ± 0.34.

Turning to “ATATATATAATATGCGGTACACATTAATTAAATCAT [XGTACX_site5702]”, the “gcPBM binding intensity (ln)” value was determined as 11.2 ± 0.67.

Take “TTATAAATATAAAAATGTACAGAAAAAAAAAATAAA [XGTACX_site863]”: the “gcPBM binding intensity (ln)” value worked out at 11.1 ± 0.79.

Take “ATAGAACTATATTGCACACATAATATATATATATAT [CACACA_site3189]”: the “gcPBM binding intensity (ln)” value amounted to 10.2 ± 0.17.

As to “GTAAAAAATATGACAAGTACAAGAAAAGAAAAAAGT [XGTACX_site7906]”, the “gcPBM binding intensity (ln)” value is 11.3 ± 0.7.

As to “AAAAGATTTATACATACACACATATTATATTCACAT [CACACA_site3713]”, the “gcPBM binding intensity (ln)” value came out at 9.93 ± 0.2.

With “TTTCAAAAATGAGTTACACACACACGGATATAAATA [CACACA_site7116]”, the “gcPBM binding intensity (ln)” value was determined as 10.2 ± 0.2.

Regarding “GAATATAAAATATATATATATATATATATATATATA [GTGCAC_negctrl_site425]”, the “gcPBM binding intensity (ln)” value is 9.7 ± 0.56.

As for “GTAGAGCATAATAAAACACACACATACATACATATA [CACACA_site8217]”, the “gcPBM binding intensity (ln)” value was determined as 10.025 ± 0.007.

Turning to “TTATTGCATTGTTTTTATAAAAAAAAAAAAAAAATT [XGTACX_negctrl_site104]”, the “gcPBM binding intensity (ln)” value amounted to 9.84 ± 0.16.

With “CTATTTCATGGACACACACACACAAACAAACATATA [CACACA_site4696]”, the “gcPBM binding intensity (ln)” value came out at 11 ± 0.67.

For “ATATATTATATAAAGTGTACAAAAAAAATATATAAA [XGTACX_site8065]”, the “gcPBM binding intensity (ln)” value stood at 11.2 ± 0.72.

In the case of “TAATTATGCAGACACACACACACACCCAACTAAAAA [CACACA_site2569]”, the “gcPBM binding intensity (ln)” value was 10.3 ± 0.23.

On to “TATTTATTGTGATACTTATATTACTTAATGATTAAA [CACACA_negctrl_site676]”, for which the “gcPBM binding intensity (ln)” value was 10.2 ± 0.33.

In the case of “TTTCTTGCTACATGAAGTACACTTTCTATGACTCGT [XGTACX_site5583]”, the “gcPBM binding intensity (ln)” value stood at 11.5 ± 0.76.

For the sequence “ATTAATAAGAAATATACACACATGGATAAATACATA [CACACA_site1872]”, the “gcPBM binding intensity (ln)” value was 9.975 ± 0.007.

As for “TGTGTTCAGTATTGCACACACACAACAAAATAAAAA [CACACA_site8017]”, the “gcPBM binding intensity (ln)” value was found to be 10.4 ± 0.33.

As to “ATATATATTTTATTCACACATAAGATTATAAAACAT [CACACA_site5369]”, the “gcPBM binding intensity (ln)” value worked out at 9.86 ± 0.071.

Take “TATGATATAATTATGTGTACACAATTTTTTTTTTTT [XGTACX_site1084]”: the “gcPBM binding intensity (ln)” value worked out at 11.6 ± 0.8.

Regarding “AAAAAAAAGGAAATAACACACATGTATTTATTTATA [CACACA_site4966]”, the “gcPBM binding intensity (ln)” value is 9.905 ± 0.021.

Turning to “CGATACTTTAGGTGTACACAAATATACATGAATGAG [CACACA_site5189]”, the “gcPBM binding intensity (ln)” value was determined as 11.6 ± 0.84.

As for “CTTTAAAACCGGTACTGTACACATAGTATTATTATC [XGTACX_site2602]”, the “gcPBM binding intensity (ln)” value worked out at 11.6 ± 0.8.

As for “ATAATAATAATATAACCAAGGAAATATAATATTTGT [XGTACX_negctrl_site485]”, the “gcPBM binding intensity (ln)” value was 10 ± 0.099.

The record behind these values is the supplement of paper PMC11417369.
